Data reported in the supplement of paper PMC3334620.
In all, about 33,000 sequences were measured (“E-score (-0.5 to 0.5)”: median about -0.016, highest 2% from about 0.32 on). Some of the results follow.

These sequences were tested against T1, Stp1 (UniProt B3LFK1) (assay: PBM E-score (8-mer binding enrichment) (E-score (-0.5 to 0.5)); higher = stronger / more preferred TF binding; most listed sequences are background and not binding sites). Details: protein concentration: 200 nM; construct: GST-full length.
T1 sequence: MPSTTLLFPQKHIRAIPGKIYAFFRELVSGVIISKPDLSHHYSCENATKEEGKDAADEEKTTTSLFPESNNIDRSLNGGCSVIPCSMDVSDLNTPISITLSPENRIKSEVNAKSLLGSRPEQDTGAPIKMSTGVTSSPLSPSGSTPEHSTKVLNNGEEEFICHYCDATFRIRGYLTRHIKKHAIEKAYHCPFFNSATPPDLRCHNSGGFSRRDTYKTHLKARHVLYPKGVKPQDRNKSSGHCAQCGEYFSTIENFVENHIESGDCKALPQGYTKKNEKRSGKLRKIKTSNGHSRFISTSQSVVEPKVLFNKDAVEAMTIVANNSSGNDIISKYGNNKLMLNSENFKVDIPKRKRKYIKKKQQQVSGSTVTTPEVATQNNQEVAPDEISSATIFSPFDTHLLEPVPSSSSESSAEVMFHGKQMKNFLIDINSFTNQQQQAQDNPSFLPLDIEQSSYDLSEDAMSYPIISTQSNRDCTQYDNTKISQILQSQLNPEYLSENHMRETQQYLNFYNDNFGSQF
Experimental: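 Universal 'all 10-mer' protein binding microarrays (Agilent AMADID 015681) probed with GST-tagged S. cerevisiae TFs (full-length or DBD) made by in vitro transcription/translation (PURExpress), about 100-200 nM. Bound TF was detected with fluorescent anti-GST. Each ungapped 8-mer (which stands for itself and its reverse complement) is scored by the PBM enrichment score (E-score), a modified Wilcoxon-Mann-Whitney statistic from -0.5 to +0.5, computed with the Universal PBM Analysis Suite. Scale: above 0.35 generally sequence-specific binding.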

Row | Sequence | PBM E-score
1 | AGTGCGAG | -0.0678
2 | AATAAAGA | 0.09
3 | AATGCATA | -0.0447
4 | ACCAGAGG | 0.0219
5 | ACAATAGG | -0.0292
6 | ATAGGCAC | 0.178
7 | ACTATACG | 0.0276
8 | AGTTAGCA | 0.144
9 | AGCGGTAA | 0.0593
10 | GCAAAGAA | 0.173
11 | AAAAATTT | 0.0238
12 | ACGAAAAT | 0.163
13 | ATGAACAC | 0.0824
14 | GTGAAGGA | -0.196
15 | CAAACCGA | -0.122
16 | CACAGCCC | -0.172
17 | ACTGTCTA | -0.0688
18 | ACTTCAAG | 0.0425
19 | ACGTATGG | 0.0102
20 | GAGCGAGC | 0.0421
21 | AACAGGGG | -0.147
22 | GCTTCGCA | -0.074
23 | AGGGCAAG | -0.0307
24 | ATACGATG | -0.0671
25 | CCTTTCCC | -0.0362

Row | Sequence | PBM E-score
26 | ATGTAAAA | 0.198
27 | ACCGACCA | -0.00902
28 | ATCAAGGA | -0.00255
29 | AAAGATCA | 0.136
30 | ACACCTAC | 0.0117
31 | ACCGTCTC | 0.00679
32 | CCGTTGAC | -0.0284
33 | CATACCGG | -0.0661
34 | ATATTCAT | 0.147
35 | AGCGGTTA | -0.145
36 | AGGGAGCG | -0.194
37 | ATGCCTTC | 0.154
38 | ACGATTGG | 0.0977
39 | CCATCTCG | -0.0786
40 | CTGGTGTA | -0.191
41 | AGAGAAGC | 0.0567
42 | GGCTGGCA | -0.274
43 | GCTCTACA | 0.126
44 | AGTACTAC | 0.0547
45 | CAAGGTAA | 0.0583
46 | CTCTTATC | 0.00982
47 | CTTATCAA | 0.188
48 | ATGGATTG | 0.0558
49 | AAAATCAG | 0.0096
50 | ACAACAGG | -0.0601

Row | Sequence | PBM E-score
51 | GATTTTAA | 0.17
52 | ATGAGTGC | 0.168
53 | ATGCAAAT | -0.00759
54 | CTAAAAAA | 0.267
55 | ATTCATAC | 0.181
56 | AACCATCA | -0.169
57 | CCCGTGAC | -0.0372
58 | AGGCGACG | 0.209
59 | GGGGACCC | -0.358
60 | AATCTCCT | -0.266
61 | CATAGCTA | -0.27
62 | CGAGGCCA | -0.178
63 | ATGGAGAG | -0.0615
64 | GTCGGATA | -0.0528
65 | ACTATATC | 0.0735
66 | AGCGGAGA | -0.132
67 | ACAAGGGC | -0.0113
68 | AGTGTAAG | -0.0377
69 | CCCTAAGG | -0.258
70 | CAGGGCGC | 0.363
71 | GGCGACAA | 0.3
72 | ACAGCCAA | -0.0404
73 | CGCGGAAC | 0.383
74 | TCAGTCAA | 0.0441
75 | GATTGCGC | 0.232

Row | Sequence | PBM E-score
76 | AGAAGTAG | -0.0353
77 | ATATCCCA | 0.111
78 | CGTCAATC | 0.147
79 | CAGTTGTA | -0.0706
80 | ACTGGTTA | -0.0769
81 | ACTTTAAC | -0.0213
82 | ACAGGCCA | -0.118
83 | ATTTTGGC | 0.0882
84 | CTGTTGAA | 0.139
85 | ATCGTGTG | 0.186
86 | CTTTCCTA | -0.137
87 | AGGTTGGA | -0.133
88 | ATTTCACC | -0.0158
89 | CAACGTTC | -0.242
90 | ACTCAAGG | -0.176
91 | TACCCCGA | 0.0291
92 | GTACAAAA | 0.198
93 | AGAGCATA | -0.0735
94 | CGCAGCAC | 0.27
95 | AATATGGG | -0.0391
96 | ACATACAT | 0.0575
97 | CTTGCTCA | -0.149
98 | ACAGCAAA | 0.172
99 | CGTGGAAA | 0.177
100 | AGTTGCAT | 0.122

Row | Sequence | PBM E-score
101 | ACACCCGG | 0.0218
102 | GCCGGAAC | 0.0527
103 | ATAGTTCA | 0.128
104 | ATAATGCA | -0.0333
105 | AATCCCGA | 0.0853
106 | ACATTTCA | -0.00157
107 | CGTCTGCC | 0.0318
108 | ATTCTTGC | 0.112
109 | GCTCGGAC | -0.166
110 | AACTACGC | 0.106
111 | AAGACCAG | -0.234
112 | GATATATC | 0.106
113 | ACTGAGTA | -0.242
114 | CTGGAATA | -0.0227
115 | GTCCACAC | 0.049
116 | GTCACCCA | -0.21
117 | CTTACACA | -0.0994
118 | AACAGGCA | -0.018
119 | CACGTTGG | -0.119
120 | GTAGCAAC | 0.0406
121 | CACCGCAG | -0.01
122 | ACTCCATA | -0.165
123 | CGTCGACC | -0.011
124 | ATAGCCGC | 0.298
125 | GAGCGCCA | 0.0261

Row | Sequence | PBM E-score
126 | CGTTTAGA | 0.144
127 | AAGGTTCT | -0.0888
128 | CCTGGTTC | -0.0663
129 | CTATGTCC | -0.184
130 | ATACGGAC | 0.105
131 | AAGAAAAC | 0.0611
132 | ATATCGAA | 0.0808
133 | ACGATCTC | -0.108
134 | ACACACCG | -0.152
135 | AGTCTCTG | -0.0591
136 | ATCAAGTC | -0.081
137 | CAGCGGGA | -0.174
138 | ACGATTTC | 0.152
139 | AGATCGAT | -0.165
140 | AGAAAATC | 0.0861
141 | CCGTGAAC | 0.0525
142 | CGATTTTA | 0.179
143 | ACCCACAG | -0.148
144 | CAGAAATC | 0.103
145 | CAGACGTC | -0.116
146 | CGCGAATA | -0.0469
147 | CCCATGGG | 0.128
148 | GTATACTA | -0.126
149 | ACCATGGG | -0.161
150 | GCAGGTAC | -0.167

Row | Sequence | PBM E-score
151 | ACCCTAAA | -0.0152
152 | TATTAGAA | 0.167
153 | GCCGCAAA | 0.309
154 | AGGAAAAA | 0.0874
155 | GGAAAAAA | 0.149
156 | CAAGACGC | -0.0219
157 | ATTCGATA | -0.0104
158 | TCCGGTAA | -0.0422
159 | GAGAAAAA | 0.13
160 | CACCAAGG | -0.0658
161 | ATGCTACC | -0.0455
162 | CGCTACAG | -0.0259
163 | AAAGCGAT | 0.0601
164 | AATACCTA | 0.102
165 | TCAAGAAA | 0.223
166 | CGTAATGC | 0.0853
167 | AGAAGCAT | 0.0027
168 | CGAGTGCA | 0.147
169 | AGCTTATC | 0.036
170 | CGGCTGAG | -0.00052
171 | CTCCCGAG | -0.367
172 | ATTGCGAC | 0.0715
